Results taken from a compilation of properties of binary mixtures (doi:10.1021/acs.jced.8b00334).
The densities may have been worked out from excess volumes.

Experiment: xn = mol fraction of the nth substance listed
Details: 101.3 kPa

CCC[N+](C)(C)C.O=S(=O)([N-]S(=O)(=O)C(F)(F)F)C(F)(F)F + CCC[N+]1(C)CCCCC1.O=S(=O)([N-]S(=O)(=O)C(F)(F)F)C(F)(F)F
mass density [kg/m3]
Details | x1 = 0.2 | x1 = 0.4 | x1 = 0.6 | x1 = 0.8 | x1 = 1
283.15 K | 1425 | 1428 | – | – | 1441
288.15 K | 1420 | 1424 | 1428 | 1431 | 1436
293.15 K | 1416 | 1420 | – | – | 1432
298.15 K | 1412 | 1415 | 1419 | 1423 | 1427
303.15 K | 1407 | 1411 | 1414 | 1418 | 1423
308.15 K | 1403 | – | – | 1414 | 1418
313.15 K | 1399 | 1402 | 1406 | – | 1414
318.15 K | 1394 | – | – | 1405 | 1409
323.15 K | 1390 | 1393 | 1397 | 1400 | 1405
328.15 K | 1386 | 1389 | 1392 | 1396 | 1400
333.15 K | 1381 | 1385 | 1388 | 1392 | 1396
338.15 K | 1377 | 1380 | 1384 | 1387 | 1391
343.15 K | 1373 | – | 1379 | – | 1387
348.15 K | 1368 | 1372 | 1375 | – | –
353.15 K | 1364 | 1367 | 1371 | 1374 | 1378

CCC[N+]1(C)CCCC1.O=S(=O)([N-]S(=O)(=O)C(F)(F)F)C(F)(F)F + CCC[N+](C)(C)C.O=S(=O)([N-]S(=O)(=O)C(F)(F)F)C(F)(F)F
x2 = 0
Details | mass density [kg/m3]
283.15 K | 1441
288.15 K | 1436
293.15 K | 1432
303.15 K | 1423
308.15 K | 1418
313.15 K | 1414
318.15 K | 1409
323.15 K | 1405
328.15 K | 1400
333.15 K | 1396
338.15 K | 1392
343.15 K | 1387
348.15 K | 1383
353.15 K | 1379

CCC[N+]1(C)CCCCC1.O=S(=O)([N-]S(=O)(=O)C(F)(F)F)C(F)(F)F + CCC[N+](C)(C)C.O=S(=O)([N-]S(=O)(=O)C(F)(F)F)C(F)(F)F
x2 = 0
Details | mass density [kg/m3]
283.15 K | 1422
288.15 K | 1418
308.15 K | 1400
318.15 K | 1391
323.15 K | 1387
328.15 K | 1383
333.15 K | 1378
348.15 K | 1365
353.15 K | 1361
